# Out of some 110,000 compounds screened, about 40 (0.04%) were called active. This list was built around the results that the source calls inconclusive (neither active nor inactive); the mix of calls is not that of the screen. Calls follow the shape of the dose curve; as a rule, active = well fitted curve in the direction sought with a large enough effect in the signal ratio (not every such curve was filed as active); inconclusive = small, poorly fitted or top-dose-only effect, or a change in a side signal; inactive = flat fitted curve, though single readings scatter; the % refers to the signal ratio. Potencies of inconclusive entries are doubtful fits and often do not repeat.
# Assay: IkB Signaling
# Details: ABC-DLBCL IkBa-CBG/CBR dual luciferase ratio (green luciferase fused to IkBa over red control in OCI-Ly3 lymphoma cells), 4 h; IkBa stabilization activation: at 57.1 µM (top of the series), scaled: untreated 0%, proteasome inhibitor 100% unless noted
# Outline: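 Curves were fitted separately to fusion (green), unfused (red) and ratio luminescence, then classed by r2, magnitude and activity. Cells: OCI-Ly3, 4 h compound plus doxycycline at 37C; 10 uM MG-132 defined full response.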
# Potency is read from the fitted curve at half-maximal effect.
SMILES,IkBa stabilization activation,Potency
CCOc1ccc(C(C)=O)cc1N1C(=O)C2C3C=CC(O3)C2C1=O (stereo not drawn),inconclusive: -0.446% [signal inhibitor],–
O=S(=O)(Nc1ccc2nc(-c3ccc(F)cc3)oc2c1)c1ccccc1,inconclusive: 1.15% [signal inhibitor],–
O=C(CCn1c(=O)[nH]c2ccsc2c1=O)N1CCN(c2cccc(Cl)c2)CC1,inconclusive: 2.5% [signal inhibitor],–
CN1CCc2c(sc3c2c(=O)n(-c2ccccc2)c2nnc(SCc4ccc(Cl)cc4)n32)C1,inactive: -0.513%,–
COc1ccc(C2C(=O)N(C3CCCCC3)CC(=O)N2CCC2=CCCCC2)cc1 (stereo not drawn),inconclusive: -1.74% [signal inhibitor],–
Cc1cccc(N2CCN(C(=O)CCc3c(C)nc4c(c3C)c(=O)n(C)c(=O)n4C)CC2)c1C,inconclusive: 0.0585% [signal inhibitor],–
COc1cccc(-c2cncnc2NCc2cccs2)c1,"inactive: 1.77% [at 11.4 µM, scaled: untreated 0%, proteasome inhibitor 100%]",–
CC1CCC(NC(=O)c2ccc3c(c2)N(Cc2ccccc2F)C(=O)c2ccccc2S3=O)CC1 (stereo not drawn),inconclusive: -0.368% [signal inhibitor],–
COc1ccc(C(C)=O)cc1COC(=O)c1c(C)noc1C,inactive: 2.33%,–
O=C(NCc1ccccc1)C(=O)NCC(c1ccc2c(c1)OCO2)N1CCOCC1 (stereo not drawn),inconclusive: 0.635% [signal inhibitor],–
Cc1ccccc1Nc1nc(N)nc(CSc2nc3ccccc3c(=O)n2CCCO)n1,inactive: 0.575%,–
O=C(c1ccccc1)N(Cc1ccc(F)cc1)C1CCS(=O)(=O)C1 (stereo not drawn),inactive: 2.81%,–
Cc1ccc2c(c1)C(=O)OC(C(=O)Nc1ncc(Cc3ccccc3Cl)s1)C2 (stereo not drawn),inconclusive: 5.45% [signal inhibitor],–
CCOc1ccc2c(c1)c(=O)c(C(=O)c1ccccc1)cn2Cc1ccccc1,inconclusive: 0.667% [signal inhibitor],–
Cc1ccc(C(=O)Nc2c(C(=O)NC(C)(C)C)oc3ccccc23)cc1,inconclusive: 2.56% [signal inhibitor],–
CC(=O)Nc1ccc2nc(-c3ccccn3)[nH]c2c1,inactive: 0.727%,–
CCOC(=O)c1ccc(NC(=O)CSc2c(C(C)C)cnc3c2c(=O)n(C)c(=O)n3C)cc1,inconclusive: -0.754% [signal inhibitor],–
Cc1cc(C)c2c(CC(=O)Nc3ccc(F)cc3)coc2c1,inactive: -1.24%,–
O=C(/C=C\Nc1cccc(F)c1)c1ccc2c(c1)OCO2,–,"inconclusive: 15.8 µM [signal inhibitor, partial curve]"
CCOc1nc2c(c(=O)n(C)c(=O)n2C)n1Cc1ccccc1Cl,inconclusive: 8.61% [signal inhibitor],–
Cn1cccc1Cc1nnc(SCC(=O)Nc2ccc3c(c2)OCCO3)n1CCc1ccccc1,inactive: 2.41%,–
CCNc1ncc2ncc(=O)n(CCOC)c2n1,"inactive: 1.29% [at 11.4 µM, scaled: untreated 0%, proteasome inhibitor 100%]",–

SMILES,IkBa stabilization activation,Potency
CC(C)c1cc(C(=O)Nc2ccc3c(c2)OCO3)no1,–,"inconclusive: 15.8 µM [signal inhibitor, partial curve]"
Cc1cccc(N2C(=O)N(Cc3cc(=O)n4ccccc4n3)c3ccccc3S2(=O)=O)c1,inconclusive: 2.37% [signal inhibitor],–
COc1ccc(CNC(=O)Cn2nc3c(cc2=O)CCCC3)cc1,inconclusive: 10.7% [signal activator],–
Cc1ccc2[nH]c(=O)c3cc(C(=O)N(C)c4ccc(Br)cc4)sc3c2c1,inactive: -1.39%,–
CC(=O)Nc1cc(C(=O)NCc2ccccc2Cl)ccc1Sc1ccc(F)cc1,inconclusive: 2.21% [signal inhibitor],–
Cc1cc(C)cc(NC(=O)c2cc(S(=O)(=O)NCCC3=CCCCC3)ccc2F)c1,inconclusive: 0.51% [signal inhibitor],–
COC(=O)CSc1nc2ccccc2o1,inactive: -0.0198%,–
CCOc1ccc2nc(N3CCN(C(=O)c4ccc5c(c4)CCCC5)CC3)sc2c1,inconclusive: -0.0817% [signal inhibitor],–
COc1ccc(CCNCc2c(C(=O)O)c(C)n(Cc3c(F)cccc3Cl)c2C)cc1OC,inactive: 0.192%,–
Cc1cc(OCC(=O)Nc2ccc(C(=O)OC3CCCCC3)cc2)cc(C)c1Cl,inconclusive: 12.6% [signal inhibitor],–
CCOC(=O)c1ccc(Oc2nc(NC(C)(C)C)nc(N(C)C)n2)cc1,inconclusive: 6.27% [signal inhibitor],–
Cc1ccccc1-c1noc(-c2cc3ccccc3oc2=O)n1,–,"inconclusive: 25.1 µM [signal inhibitor, single point]"
Cc1ccc(-n2ncc(C(=O)Nc3ccc4c(c3)OCCO4)c2C2CCN(C(=O)OC(C)(C)C)CC2)cc1,inconclusive: -2.77% [signal inhibitor],–
CCOc1cccc(CN2CCN(c3cccc(C(F)(F)F)c3)CC2)c1O,inconclusive: 4.93% [signal inhibitor],–
COc1ccc(OCC(=O)N2CCN(c3nnc(-c4ccccc4)c4ccccc34)CC2)cc1,inconclusive: -1.44% [signal inhibitor],–
Cc1cc(C)nc(-n2nc(C)cc2NC(=O)CN2CCc3ccccc3C2)n1,inactive: 0.738%,–
CC1CCN(S(=O)(=O)c2ccc3c(c2)oc(=O)n3CC(=O)NC(C)c2ccccc2)CC1 (stereo not drawn),inconclusive: -1.05% [signal inhibitor],–
CNc1c(NC(=O)c2cc(OC)cc(OC)c2)c(=O)oc2ccccc12,inconclusive: 2.84% [signal inhibitor],–
CCOC(=O)c1cnc2ccc(OC)cc2c1NCCc1ccc(OC)c(OC)c1,inconclusive: 17.5% [signal inhibitor],–
Cc1cnc(CNc2nc(-c3ccc(C(=O)N(C)C)cc3)nc3ccccc23)cn1,"inactive: -3.55% [at 11.4 µM, scaled: untreated 0%, proteasome inhibitor 100%]",–
Cn1c(SCC(=O)N2CCCc3ccccc32)ncc(C(=O)Nc2ccc(F)cc2)c1=O,–,"inconclusive: 39.8 µM [signal inhibitor, single point]"

# Reference: PubChem BioAssay AID445 (National Center for Advancing Translational Sciences (NCATS), 2006)
